Experimental data from PubChem BioAssay AID686978 (National Center for Advancing Translational Sciences (NCATS), 2013).
The whole screen tested about 420,000 compounds, of which about 64,000 (15%) were called active. Inconclusive means that the source gave no clear call. Such entries were picked first, then a sample of the others. The call rests on the fitted dose curve; in most records, active means well fitted inhibition curve with a large enough effect; inconclusive means small, poorly fitted or top-dose-only effect; inactive means flat fitted curve, though single readings scatter. No potency is given beside an inconclusive call; the fits are too rough.

assay: qHTS for Inhibitors of human tyrosyl-DNA phosphodiesterase 1 (TDP1): qHTS in cells in absence of CPT; settings: DT40 Tdp1-/- hTDP1 cells, no CPT, ATP luminescence, 48 h; activity change, negative = growth inhibition: at 46.2 µM (top of the series) unless noted; further: nearly all actives have a fitted effect of over 55% in size
Method in brief: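 Readout: luminescence from CellTiter-Glo after 30 min in the dark at RT. Cells: DT40 Tdp1-/- with stable hTDP1, 400/well. Exposure: compounds alone, ≥48 hr, 37 °C.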
On the % scale 0 is the no-effect control and ±100 the full control effect; potency means the concentration at half of the fitted maximal effect; tags describe the fitted curve by direction and shape.

| SMILES | activity change, negative = growth inhibition | Potency |
| --- | --- | --- |
| CCN(CC)S(=O)(=O)c1ccc(-c2nnc(SCC(=O)c3ccc(OC)cc3)o2)cc1 | inactive: -21.8% | – |
| CCCN1C/C(=C/c2cccc([N+](=O)[O-])c2)C(=O)/C(=C/c2cccc([N+](=O)[O-])c2)C1 | – | active: 0.651 µM |
| CC(=O)Nc1cccc(NC(=O)CSc2cn(CC(=O)N3CCCC3)c3ccccc23)c1 | – | inconclusive [inhibitor, single point] |
| COC(=O)[C@@]12C[C@@H](CC(=O)NCCC(C)C)C(=O)N(CCc3ccc(OC)c(OC)c3)C1=CCC(C)(C)C2 | – | active: 20.6 µM |
| Cc1ccc(COn2c(-c3ccc(Cl)cc3Cl)nc3ncccc32)cc1 | – | inconclusive [inhibitor, single point] |
| O=C(Cn1nnc(-c2ccc(Cl)cc2)n1)NC1CC2CCC1C2 (configuration not stated) | – | inconclusive [inhibitor, single point] |
| NC(=S)n1[nH]c(-c2ccc([N+](=O)[O-])cc2)c(N=Nc2ccc(O)cc2)c1=O | – | inconclusive [inhibitor, single point] |
| O=C(C1=C(O)C(=O)N(Cc2ccccc2)C1c1ccco1)c1ccco1 (configuration not stated) | – | inconclusive [inhibitor, single point] |
| CC1(C)N=C(N)N=C(N)N1c1cccc(C#N)c1 | – | active: 1.03 µM |
| Fc1cccc(Cc2c(-c3cccc(Br)c3)nc3ccc(Cl)cn23)c1 | – | inconclusive [inhibitor, single point] |
| COc1cccc(CNC2CCCc3ccccc32)c1OC (configuration not stated) | – | inconclusive [inhibitor, single point] |
| COc1ccc(C2CC(c3ccccc3)=NN2c2ccc(N)cc2)cc1 (configuration not stated) | – | active: 20.6 µM |
| CC1(C)OC(=O)N(Cc2ccco2)C1(C)O (configuration not stated) | inconclusive: -3.78% [inhibitor] | – |
| CC(NC(=O)[C@H](C)N1C(=O)N2CCc3c([nH]c4ccccc34)[C@@]2(C)C1=O)c1ccccc1 (some centres not stated) | – | inconclusive [inhibitor, single point] |
| Cc1ccc(CCNC(=O)c2oc(=O)c3ccccc3c2-c2ccc(C)cc2)cc1 | – | active: 23.1 µM |
| CCCS(=O)(=O)c1nc(S(=O)(=O)c2ccc(C)cc2)c(NCC(C)C)s1 | – | active: 20.6 µM |
| CC1CCN(S(=O)(=O)c2ccc3c(ccc(=O)n3CC(=O)NCc3ccccc3)c2)CC1 | – | inconclusive [inhibitor, single point] |
| CC(O)(Cc1cccnc1)c1cccs1 (configuration not stated) | inactive: 0.277% | – |
| O=C(Nc1ccc2nc(-c3ccccc3)oc2c1)c1ccco1 | – | inconclusive [inhibitor, single point] |
| O=c1[nH]c2cc3ccccc3cc2nc1-c1nnnn1C1CCCC1 | – | active: 3.66 µM |
| CCOC(=O)C1CCN(c2ncnc3cc(OC)c(OC)cc23)CC1 | – | active: 20.6 µM |
| Cc1ccc(O)c(C(=O)c2cnn(C(=O)c3cccc(S(=O)(=O)N(C)C)c3)c2)c1 | – | inconclusive [inhibitor, single point] |
| Cc1nn(-c2ccccn2)c2c1C(c1ccsc1)C1=C(CCCC1=O)N2 (configuration not stated) | – | inconclusive [inhibitor, single point] |
| COC(=O)CC(NC(=O)c1ccc(C)cc1)c1ccc2c(c1)OCO2 (configuration not stated) | inactive: -21.2% | – |

| SMILES | activity change, negative = growth inhibition | Potency |
| --- | --- | --- |
| Cc1ccc(Nc2nc(-c3sc(N)nc3C)cs2)cc1 | – | inconclusive [inhibitor, single point] |
| CC(C)(C)OC(=O)N1CCC(c2c(C(=O)NCc3ccco3)cnn2-c2ccc(F)cc2F)CC1 | – | inconclusive [inhibitor, single point] |
| COc1ccc(C(C#N)c2cnccn2)cc1OC (configuration not stated) | inactive: 10.3% | – |
| Cc1nn(C)c(C)c1Nc1ccc(N2C(=O)C3C4C=CC(C4)C3C2=O)cc1[N+](=O)[O-] (configuration not stated) | – | active: 23.1 µM |
| COc1ccccc1-c1cn(-c2ccccc2)c(=S)[nH]1 | – | active: 20.6 µM |
| COc1ccc(-n2nnnc2SCC(=O)Nc2nnc(C)s2)cc1OC | – | inconclusive [inhibitor, single point] |
| CCC(=O)Nc1ccc(C)cc1-c1nc2ccccc2n(CC(=O)c2ccc(C)cc2)c1=O | inactive: -19.5% | – |
| CCN1CCN(CCNC(=O)c2ccc(/C=C3/Sc4ccccc4N(Cc4cccc(C)c4)C3=O)cc2)CC1 | – | inconclusive [inhibitor, partial curve] |
| Cc1cc(=O)[nH]c(SCC(N)=O)c1C#N | – | inconclusive [inhibitor, single point] |
| COc1ccccc1NC(=O)C1=C(C)Nc2nc(-c3ccco3)nn2C1c1cccc(C)c1 (configuration not stated) | – | inconclusive [inhibitor, single point] |
| CN(C)c1nc(N(C)C)c2cnn(C)c2n1 | inactive: -9.5% | – |
| Cc1ccc(N2C(=O)C3C4C=CC(CNC(=S)N5CCN(c6cccc(C)c6)C(C)C5)(O4)C3C2=O)cc1 (configuration not stated) | – | active: 4.61 µM |
| O=C(c1ccco1)C(O)c1ccco1 (configuration not stated) | inactive: 12% | – |
| O=C(NCCCN1CCOCC1)c1sc2cc([N+](=O)[O-])ccc2c1Cl | – | inconclusive [inhibitor, partial curve] |
| CCOC(=O)c1c(C)c(C(=O)NCc2ccc(Cl)cc2)c(C)n1C | inactive: -38.2% | – |
| CC1=C(C(=O)c2ccccc2)C(c2ccc(OC(F)F)cc2)NC(=S)N1 (configuration not stated) | – | inconclusive [inhibitor, single point] |
| O=C(c1cc(COc2ccc(F)cc2F)on1)N1CC[C@@H]2CCCC[C@H]2C1 | – | inconclusive [inhibitor, single point] |
| Cn1nc(-c2ccccc2)c(N2CCCCC2)cc1=O | – | inconclusive [inhibitor, single point] |
| CN(C)C(=O)CCc1ccc2c3c([nH]c2c1)[C@]1(CCc2ccccc2)[C@@H](C(=O)N2CCCCC2)C[C@H](CC(=O)NCc2ccco2)C(=O)N1CC3 | inconclusive: -30.3% [inhibitor] | – |
| O=[N+]([O-])c1ccc(/C=C2\C=Cc3ccccc32)cc1 | – | inconclusive [inhibitor, partial curve] |
| CC1(C)Cc2c(cnn2-c2ccc(F)cc2)C(NC(=O)C2=NNC(=O)CC2)C1 (configuration not stated) | – | inconclusive [inhibitor, partial curve, poor fit] |
| CC(C)(C)CN1CCN(CC#Cc2ccccc2)CC1CCO (configuration not stated) | – | active: 10.3 µM |
| Cc1cc(C)c(S(=O)(=O)N2CCCC(C(=O)NCc3cccnc3)C2)c(C)c1 (configuration not stated) | – | active: 20.6 µM |
| COc1cc2c(cc1NC(=O)c1cc(-c3ccncc3)nc3ccccc13)oc1ccccc12 | – | inconclusive [inhibitor, single point] |

| SMILES | activity change, negative = growth inhibition | Potency |
| --- | --- | --- |
| C=CCN1C(=O)/C(=C2/Sc3ccccc3N2CC)SC1=S | inactive: -21.4% | – |
| COc1ccc(S(=O)(=O)N2CCCCCC2)cc1NC(=O)CN1C(=O)NC(C)(c2ccccc2)C1=O (configuration not stated) | – | inconclusive [inhibitor, single point] |
| Cc1ccc(Cl)cc1Nc1nc(-c2cccnc2)cs1 | – | inconclusive [inhibitor, single point] |
| Cc1cccc(C(=O)OCC(=O)NC(C)CCc2ccccc2)c1O (configuration not stated) | inactive: -18.8% | – |
| COC(=O)c1c(C)[nH]c(C=O)c1-c1ccccc1 | – | inconclusive [inhibitor, single point] |
| Cc1ccc(SCc2nc(-c3ccncc3)no2)cc1 | – | active: 13 µM |
| COCCNc1nc2cc(-c3ccc(C)cc3)sc2c(=O)n1C | – | inconclusive [inhibitor, single point] |
| O=C(CC1C(=O)NCCN1Cc1ccc(-c2ccccc2)cc1)NCCOc1cccnc1 (configuration not stated) | – | active: 16.4 µM |
| Cc1ccc(S(=O)(=O)/N=C(/NC(=S)Nc2cccc(C)c2)c2ccccc2)cc1 | – | inconclusive [inhibitor, single point] |
| COc1ccc(CN2CCC(Oc3ccc(C(=O)N4CCCCC4)cc3)CC2)cc1C | – | inconclusive [inhibitor, single point] |
| C=CCNC(=S)NNC(=O)CCC(O)COCCC(C)C (configuration not stated) | inactive: -13.7% | – |
| CON(C)C(=O)CCC1CCCN1C(=O)OC(C)(C)C (configuration not stated) | inactive: -5.01% | – |
| CCc1ccc2[nH]c(=O)c(CN(CCCO)C(=O)NCc3ccccc3)cc2c1 | – | inconclusive [inhibitor, single point] |
| CCOc1ncccc1C(=O)NCCCSc1ccccc1 | – | inconclusive [inhibitor, partial curve] |
| Cc1[nH]c(=O)[nH]c(=O)c1/C=N/NC(=O)[C@@H](N)CC(C)C | inactive: -6.22% | – |
| CN(C(=O)CSc1nnc(-c2cccs2)o1)C1CCS(=O)(=O)C1 (configuration not stated) | inactive: -5.84% | – |
| Cn1nc(C(C)(C)C)cc1C(=O)N1CCCC(C)(C(=O)NS(=O)(=O)C2CC2)C1 (configuration not stated) | – | active: 6.51 µM |
| COc1cc(C(C)=O)ccc1OCC(O)CN1CCN(c2ccc(C)cc2C)CC1 (configuration not stated) | – | inconclusive [inhibitor, partial curve] |
| Cc1cc(S(=O)(=O)NC2CCCCC2)ccc1OCC(=O)NCc1ccccn1 | – | inconclusive [inhibitor, full curve, poor fit] |
| CCCCNC(=O)Cn1cnc2c(cnn2-c2ccc(C)c(C)c2)c1=O | inactive: -11.1% | – |
| O=C(CCCCl)NC(=S)Nc1ccc(CN2CCOCC2)cc1 | – | inconclusive [inhibitor, partial curve] |
| CCC1CCc2c(sc(NC(=O)c3ccco3)c2C(N)=O)C1 (configuration not stated) | inconclusive: -32.4% [inhibitor] | – |
| CCc1c(C)nc2ncnn2c1N1CCCC(C(=O)Nc2cc(F)ccc2C)C1 (configuration not stated) | – | active: 20.6 µM |
| CCOc1ccccc1NC(=O)c1cnc(NS(=O)(=O)c2ccccc2)nc1 | – | inconclusive [inhibitor, full curve, poor fit] |
